# The supplement of paper PMC8728848
# The list shows a part of the results.
# Legend:
# Assay in all cases: glycan array binding signal (z-score within array); higher = stronger binding
# Details in all cases: glycan notation: IUPAC condensed, linker removed
# [1] = molecular target: GlcNAc(a1-3)Gal(b1-4)GlcNAc
# How it was run: (§1)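 The Consortium for Functional Glycomics database supplied 3228 glycan arrays, of which those lacking an available protein sequence were dropped. The binding signal, a within-array Z-score, was averaged across arrays of the same protein sequence and across linkers. Negative scores can be read as non-binding.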
# [2] = molecular target: GlcNAc(a1-4)Gal(b1-3)GlcNAc
# How it was run: as §1
# [3] = molecular target: GlcNAc(a1-4)Gal(b1-4)GalNAc
# How it was run: as §1
# [4] = molecular target: GlcNAc(a1-4)Gal(b1-4)GlcNAc
# How it was run: as §1
# [5] = molecular target: GlcNAc(a1-4)Gal(b1-4)GlcNAc(b1-3)Gal(b1-4)Glc
# How it was run: as §1
# [6] = molecular target: GlcNAc(a1-4)Gal(b1-4)GlcNAc(b1-3)Gal(b1-4)GlcNAc
# How it was run: as §1
# [7] = molecular target: GlcNAc(a1-4)Gal(b1-4)GlcNAc(b1-3)Gal(b1-4)GlcNAc(b1-3)Gal(b1-4)GlcNAc
# How it was run: as §1
# [8] = molecular target: GlcNAc(a1-4)Gal(b1-4)GlcNAc(b1-3)Gal(b1-4)[Fuc(a1-3)]GlcNAc(b1-3)Gal(b1-4)[Fuc(a1-3)]GlcNAc
# How it was run: as §1
# [9] = molecular target: GlcNAc(a1-6)Gal(b1-4)GlcNAc
# How it was run: as §1
# [10] = molecular target: GlcNAc(b1-2)Gal(b1-3)GalNAc
# How it was run: as §1
# [11] = molecular target: GlcNAc(b1-2)Man(a1-3)[GlcNAc(b1-2)Man(a1-6)]Man(b1-4)GlcNAc(b1-4)GlcNAc
# How it was run: as §1
# [12] = molecular target: GlcNAc(b1-2)Man(a1-3)[GlcNAc(b1-2)Man(a1-6)]Man(b1-4)GlcNAc(b1-4)[Fuc(a1-6)]GlcNAc
# How it was run: as §1
# [13] = molecular target: GlcNAc(b1-2)Man(a1-3)[GlcNAc(b1-4)][GlcNAc(b1-2)Man(a1-6)]Man(b1-4)GlcNAc(b1-4)GlcNAc
# How it was run: as §1
# [14] = molecular target: GlcNAc(b1-2)Man(a1-3)[GlcNAc(b1-4)][GlcNAc(b1-2)Man(a1-6)]Man(b1-4)GlcNAc(b1-4)[Fuc(a1-6)]GlcNAc
# How it was run: as §1
# [15] = molecular target: GlcNAc(b1-2)[GlcNAc(b1-4)]Man(a1-3)[GlcNAc(b1-2)Man(a1-6)]Man(b1-4)GlcNAc(b1-4)GlcNAc
# How it was run: as §1
# [16] = molecular target: GlcNAc(b1-2)[GlcNAc(b1-4)]Man(a1-3)[GlcNAc(b1-4)][GlcNAc(b1-2)Man(a1-6)]Man(b1-4)GlcNAc(b1-4)GlcNAc
# How it was run: as §1
# [17] = molecular target: GlcNAc(b1-2)[GlcNAc(b1-4)]Man(a1-3)[GlcNAc(b1-4)][GlcNAc(b1-2)[GlcNAc(b1-6)]Man(a1-6)]Man(b1-4)GlcNAc(b1-4)GlcNAc
# How it was run: as §1
# [18] = molecular target: GlcNAc(b1-2)[GlcNAc(b1-4)]Man(a1-3)[GlcNAc(b1-4)][GlcNAc(b1-2)[GlcNAc(b1-6)]Man(a1-6)]Man(b1-4)GlcNAc(b1-4)[Fuc(a1-6)]GlcNAc
# How it was run: as §1
# [19] = molecular target: GlcNAc(b1-2)[GlcNAc(b1-6)]Man(a1-6)[GlcNAc(b1-2)Man(a1-3)]Man(b1-4)GlcNAc(b1-4)GlcNAc
# How it was run: as §1
# [20] = molecular target: GlcNAc(b1-2)[GlcNAc(b1-6)]Man(a1-6)[GlcNAc(b1-2)Man(a1-3)]Man(b1-4)GlcNAc(b1-4)[Fuc(a1-6)]GlcNAc
# How it was run: as §1
# [21] = molecular target: GlcNAc(b1-2)[GlcNAc(b1-6)]Man(a1-6)[GlcNAc(b1-4)][GlcNAc(b1-2)Man(a1-3)]Man(b1-4)GlcNAc(b1-4)GlcNAc
# How it was run: as §1
# GlcNAc(b1-3)Fuc = molecular target: GlcNAc(b1-3)Fuc
# How it was run: as §1
# GlcNAc(b1-3)Gal = molecular target: GlcNAc(b1-3)Gal
# How it was run: as §1
# [22] = molecular target: GlcNAc(b1-3)Gal(b1-3)GalNAc
# How it was run: as §1
# GlcNAc(b1-3)Gal(b1-4)Glc = molecular target: GlcNAc(b1-3)Gal(b1-4)Glc
# How it was run: as §1
# [23] = molecular target: GlcNAc(b1-3)Gal(b1-4)GlcNAc
# How it was run: as §1
# [24] = molecular target: GlcNAc(b1-3)Gal(b1-4)GlcNAc(b1-2)Man(a1-3)[GlcNAc(b1-3)Gal(b1-4)GlcNAc(b1-2)Man(a1-6)]Man(b1-4)GlcNAc(b1-4)GlcNAc
# How it was run: as §1
# [25] = molecular target: GlcNAc(b1-3)Gal(b1-4)GlcNAc(b1-2)Man(a1-3)[GlcNAc(b1-3)Gal(b1-4)GlcNAc(b1-2)Man(a1-6)]Man(b1-4)GlcNAc(b1-4)[Fuc(a1-6)]GlcNAc
# How it was run: as §1
# [26] = molecular target: GlcNAc(b1-3)Gal(b1-4)GlcNAc(b1-2)[GlcNAc(b1-3)Gal(b1-4)GlcNAc(b1-6)]Man(a1-6)[GlcNAc(b1-3)Gal(b1-4)GlcNAc(b1-2)Man(a1-3)]Man(b1-4)GlcNAc(b1-4)GlcNAc
# How it was run: as §1
# [27] = molecular target: GlcNAc(b1-3)Gal(b1-4)GlcNAc(b1-3)Gal(b1-4)GlcNAc
# How it was run: as §1
# [28] = molecular target: GlcNAc(b1-3)Gal(b1-4)GlcNAc(b1-3)Gal(b1-4)GlcNAc(b1-2)Man(a1-3)[GlcNAc(b1-3)Gal(b1-4)GlcNAc(b1-3)Gal(b1-4)GlcNAc(b1-2)Man(a1-6)]Man(b1-4)GlcNAc(b1-4)GlcNAc
# How it was run: as §1
# [29] = molecular target: GlcNAc(b1-3)Gal(b1-4)GlcNAc(b1-3)Gal(b1-4)GlcNAc(b1-2)Man(a1-3)[GlcNAc(b1-3)Gal(b1-4)GlcNAc(b1-3)Gal(b1-4)GlcNAc(b1-2)Man(a1-6)]Man(b1-4)GlcNAc(b1-4)[Fuc(a1-6)]GlcNAc
# How it was run: as §1
# [30] = molecular target: GlcNAc(b1-3)Gal(b1-4)GlcNAc(b1-3)Gal(b1-4)GlcNAc(b1-2)[GlcNAc(b1-3)Gal(b1-4)GlcNAc(b1-3)Gal(b1-4)GlcNAc(b1-6)]Man(a1-6)[GlcNAc(b1-3)Gal(b1-4)GlcNAc(b1-3)Gal(b1-4)GlcNAc(b1-2)Man(a1-3)]Man(b1-4)GlcNAc(b1-4)[Fuc(a1-6)]GlcNAc
# How it was run: as §1
# [31] = molecular target: GlcNAc(b1-3)Gal(b1-4)GlcNAc(b1-3)Gal(b1-4)GlcNAc(b1-3)Gal(b1-4)GlcNAc(b1-2)Man(a1-3)[GlcNAc(b1-3)Gal(b1-4)GlcNAc(b1-3)Gal(b1-4)GlcNAc(b1-3)Gal(b1-4)GlcNAc(b1-2)Man(a1-6)]Man(b1-4)GlcNAc(b1-4)GlcNAc
# How it was run: as §1
# [32] = molecular target: GlcNAc(b1-3)Gal(b1-4)GlcNAc(b1-3)Gal(b1-4)GlcNAc(b1-3)Gal(b1-4)GlcNAc(b1-2)Man(a1-3)[GlcNAc(b1-3)Gal(b1-4)GlcNAc(b1-3)Gal(b1-4)GlcNAc(b1-3)Gal(b1-4)GlcNAc(b1-2)Man(a1-6)]Man(b1-4)GlcNAc(b1-4)[Fuc(a1-6)]GlcNAc
# How it was run: as §1
# [33] = molecular target: GlcNAc(b1-3)Gal(b1-4)GlcNAc(b1-3)Gal(b1-4)GlcNAc(b1-3)Gal(b1-4)GlcNAc(b1-2)[GlcNAc(b1-3)Gal(b1-4)GlcNAc(b1-3)Gal(b1-4)GlcNAc(b1-3)Gal(b1-4)GlcNAc(b1-6)]Man(a1-6)[GlcNAc(b1-3)Gal(b1-4)GlcNAc(b1-3)Gal(b1-4)GlcNAc(b1-3)Gal(b1-4)GlcNAc(b1-2)Man(a1-3)]Man(b1-4)GlcNAc(b1-4)[Fuc(a1-6)]GlcNAc
# How it was run: as §1
# [34] = molecular target: GlcNAc(b1-3)Gal(b1-4)GlcNAc(b1-3)Gal(b1-4)GlcNAc(b1-3)Gal(b1-4)GlcNAc(b1-3)Gal(b1-4)GlcNAc(b1-2)Man(a1-3)[GlcNAc(b1-3)Gal(b1-4)GlcNAc(b1-3)Gal(b1-4)GlcNAc(b1-3)Gal(b1-4)GlcNAc(b1-3)Gal(b1-4)GlcNAc(b1-2)Man(a1-6)]Man(b1-4)GlcNAc(b1-4)GlcNAc
# How it was run: as §1
# [35] = molecular target: GlcNAc(b1-3)Gal(b1-4)GlcNAc(b1-3)Gal(b1-4)GlcNAc(b1-3)Gal(b1-4)GlcNAc(b1-3)Gal(b1-4)GlcNAc(b1-2)Man(a1-3)[GlcNAc(b1-3)Gal(b1-4)GlcNAc(b1-3)Gal(b1-4)GlcNAc(b1-3)Gal(b1-4)GlcNAc(b1-3)Gal(b1-4)GlcNAc(b1-2)Man(a1-6)]Man(b1-4)GlcNAc(b1-4)[Fuc(a1-6)]GlcNAc
# How it was run: as §1
binder,measurement,setting,value
"Epa6 (Candida glabrata), Q6DTM7_CANGB (protein) MGSSHHHHHHSSGLVPRGSHMKDDYSSSLSNNNLGWTDPTEFPLGCSPNVTTPKNGLSMELYSYDYLKSGSNPCWDAAYLDPNYPRTGYKSHRLLAKVENVAGNINFYYHAPMGCTSLFDTLPQAYNYRTPLTMTNFTMLLYGYFKPKVTGYHTFTISADDLLFVNFGAGNAFDCCKRESSADDFGNYQAYAVWGSQTAKDDLTVHLDAGLYYPIRIFFNNRDNDGALSLTLKTESDPNPVIDFSDYFYSFDDTKDGCPGLVSYDTS",glycan array binding signal (z-score),[1],-0.308
same,glycan array binding signal (z-score),[2],-0.306
same,glycan array binding signal (z-score),[3],-0.297
same,glycan array binding signal (z-score),[4],-0.307
same,glycan array binding signal (z-score),[5],-0.346
same,glycan array binding signal (z-score),[6],-0.303
same,glycan array binding signal (z-score),[7],-0.297
same,glycan array binding signal (z-score),[8],-0.268
same,glycan array binding signal (z-score),[9],-0.07
same,glycan array binding signal (z-score),[10],-0.289
same,glycan array binding signal (z-score),[11],-0.321
same,glycan array binding signal (z-score),[12],-0.233
same,glycan array binding signal (z-score),[13],-0.339
same,glycan array binding signal (z-score),[14],-0.314
same,glycan array binding signal (z-score),[15],-0.326
same,glycan array binding signal (z-score),[16],-0.301
same,glycan array binding signal (z-score),[17],-0.337
same,glycan array binding signal (z-score),[18],-0.329
same,glycan array binding signal (z-score),[19],-0.343
same,glycan array binding signal (z-score),[20],-0.309
same,glycan array binding signal (z-score),[21],-0.344
same,glycan array binding signal (z-score),GlcNAc(b1-3)Fuc,-0.332
same,glycan array binding signal (z-score),GlcNAc(b1-3)Gal,-0.334
same,glycan array binding signal (z-score),[22],-0.273
same,glycan array binding signal (z-score),GlcNAc(b1-3)Gal(b1-4)Glc,-0.339
same,glycan array binding signal (z-score),[23],-0.254
same,glycan array binding signal (z-score),[24],-0.319
same,glycan array binding signal (z-score),[25],-0.272
same,glycan array binding signal (z-score),[26],-0.167
same,glycan array binding signal (z-score),[27],-0.334
same,glycan array binding signal (z-score),[28],-0.222
same,glycan array binding signal (z-score),[29],-0.255
same,glycan array binding signal (z-score),[30],-0.136
same,glycan array binding signal (z-score),[31],-0.218
same,glycan array binding signal (z-score),[32],-0.212
same,glycan array binding signal (z-score),[33],-0.262
same,glycan array binding signal (z-score),[34],-0.253
same,glycan array binding signal (z-score),[35],-0.252
